Data reported in the supplement of paper PMC7125110.
This sample is rich in variants without activity.

B1: glmS ribozyme (parent)
chain: AUAAAAGCGCCAGAACUACAGAAAUGUAGUUGACGAGGAGGAGGUUUAUCGAAUUUUCGGCGGAUGCCUCCAAA

Legend:
Details in all cases: with glucosamine-6-phosphate
glucosamine-6-phosphate [1] = variants of: B1; experiment: kcat; higher = faster cleavage; RNA array
Outline: (§1)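 Barcoded ribozyme variants were transcribed in situ on sequenced MiSeq chips by E. coli RNA polymerase. At 37 °C, a hybridised Cy3 probe tracked them while glucosamine-6-phosphate (40 μM to 10 mM) in HEPES/KCl/Mg(OAc)2 buffer flowed in and tiles were imaged over ~14 h. Per-tile medians of signals normalised to baseline and to non-cleaving reference variants were fit to one- or two-exponential decays, giving kobs. kcat and KM came from weighted Michaelis–Menten fits across concentrations.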

glucosamine-6-phosphate [2] = variants of: B1; experiment: self-cleavage kobs at 640 uM GlcN6P; higher = faster cleavage; RNA array
Outline: as §1

glucosamine-6-phosphate [3] = variants of: B1; experiment: self-cleavage kobs at 10000 uM GlcN6P; higher = faster cleavage; RNA array
Outline: as §1

glucosamine-6-phosphate [4] = variants of: B1; experiment: self-cleavage kobs at 160 uM GlcN6P; higher = faster cleavage; RNA array
Outline: as §1

glucosamine-6-phosphate [5] = variants of: B1; experiment: self-cleavage kobs at 2500 uM GlcN6P; higher = faster cleavage; RNA array
Outline: as §1

glucosamine-6-phosphate [6] = variants of: B1; experiment: self-cleavage kobs at 40 uM GlcN6P; higher = faster cleavage; RNA array
Outline: as §1

| Variant | kcat (glucosamine-6-phosphate [1]) [s⁻¹] | self-cleavage kobs at 640 uM GlcN6P (glucosamine-6-phosphate [2]) [s⁻¹] | self-cleavage kobs at 10000 uM GlcN6P (glucosamine-6-phosphate [3]) [s⁻¹] | self-cleavage kobs at 160 uM GlcN6P (glucosamine-6-phosphate [4]) [s⁻¹] | self-cleavage kobs at 2500 uM GlcN6P (glucosamine-6-phosphate [5]) [s⁻¹] | self-cleavage kobs at 40 uM GlcN6P (glucosamine-6-phosphate [6]) [s⁻¹] |
| --- | --- | --- | --- | --- | --- | --- |
| U2C C34G G38U C61A | < 1e-05 |  |  |  |  |  |
| A6G A33C A39C | < 1e-05 | < 1e-05 |  |  |  |  |
| A6U A12G | < 1e-05 |  |  |  |  |  |
| G7A C61U | < 1e-05 |  | < 1e-05 |  |  |  |
| G7C A52G | < 1e-05 | < 1e-05 |  | < 1e-05 | < 1e-05 |  |
| G7C G13U | < 1e-05 | < 1e-05 | < 1e-05 | < 1e-05 |  | < 1e-05 |
| G7U G38U | < 1e-05 |  | < 1e-05 | < 1e-05 | < 1e-05 | < 1e-05 |
| G7U U56G | < 1e-05 |  | < 1e-05 |  |  | < 1e-05 |
| C8G A14C G37C C67G | < 1e-05 | < 1e-05 |  |  |  | < 1e-05 |
| C10A A64C | < 1e-05 | < 1e-05 | < 1e-05 |  | < 1e-05 |  |
| C10A G13U | < 1e-05 | < 1e-05 |  |  |  |  |
| C10A G37U | < 1e-05 |  |  |  |  | < 1e-05 |
| C10G C70G | < 1e-05 |  |  |  |  | < 1e-05 |
| C10G U45C U69C | < 1e-05 | < 1e-05 |  |  |  |  |
| C10U A15U A52C | < 1e-05 | < 1e-05 |  |  |  |  |
| C10U G32C | < 1e-05 | < 1e-05 |  | < 1e-05 |  | < 1e-05 |
| C11A U30G G60A | < 1e-05 |  |  | < 1e-05 |  |  |
| C11G A36C G37U A52U G60U G66A C67A | < 1e-05 |  |  |  | < 1e-05 |  |
| C11G U55A | < 1e-05 |  |  | < 1e-05 |  | < 1e-05 |
| C11U A33U G38U | < 1e-05 |  |  | < 1e-05 |  |  |
| C11U G37U | < 1e-05 |  |  |  |  |  |
| A12C A36C | < 1e-05 |  |  | < 1e-05 |  |  |
| A12C G51A | < 1e-05 |  |  | < 1e-05 | < 1e-05 | < 1e-05 |
| A12G G35U G41U G51A U55C | < 1e-05 |  |  | < 1e-05 |  | < 1e-05 |
| A12U G60C | < 1e-05 |  |  | < 1e-05 |  |  |

| Variant | kcat (glucosamine-6-phosphate [1]) [s⁻¹] | self-cleavage kobs at 640 uM GlcN6P (glucosamine-6-phosphate [2]) [s⁻¹] | self-cleavage kobs at 10000 uM GlcN6P (glucosamine-6-phosphate [3]) [s⁻¹] | self-cleavage kobs at 160 uM GlcN6P (glucosamine-6-phosphate [4]) [s⁻¹] | self-cleavage kobs at 2500 uM GlcN6P (glucosamine-6-phosphate [5]) [s⁻¹] | self-cleavage kobs at 40 uM GlcN6P (glucosamine-6-phosphate [6]) [s⁻¹] |
| --- | --- | --- | --- | --- | --- | --- |
| G13A A33U | < 1e-05 |  |  |  |  | < 1e-05 |
| G13C C68G | < 1e-05 |  |  |  |  |  |
| G13U A36C C70U | < 1e-05 |  | < 1e-05 |  |  |  |
| G13U A48C | < 1e-05 | < 1e-05 |  | < 1e-05 |  | < 1e-05 |
| G13U G38A | < 1e-05 |  | < 1e-05 |  | < 1e-05 |  |
| A14C A15U G26U U30G U47G U57A | < 1e-05 |  |  |  |  |  |
| A14C C61A | < 1e-05 |  |  |  |  | < 1e-05 |
| A15C G60A | < 1e-05 | < 1e-05 |  |  |  | < 1e-05 |
| A15G G63U | < 1e-05 |  | < 1e-05 | < 1e-05 |  |  |
| C16G C34G | < 1e-05 |  | < 1e-05 |  |  |  |
| C16G G38U | < 1e-05 | < 1e-05 |  |  |  |  |
| G29U C61U | < 1e-05 | < 1e-05 | < 1e-05 |  |  | < 1e-05 |
| U30A U49A | < 1e-05 |  |  | < 1e-05 |  | < 1e-05 |
| U30C U46C | < 1e-05 |  |  |  |  |  |
| U31A G37U | < 1e-05 |  | < 1e-05 |  |  |  |
| U31C A42C | < 1e-05 |  |  | < 1e-05 |  | < 1e-05 |
| G32A A33C C70G | < 1e-05 |  |  |  | < 1e-05 |  |
| G32A A48G | < 1e-05 | < 1e-05 |  |  |  |  |
| G32C A42C | < 1e-05 | < 1e-05 |  | < 1e-05 |  |  |
| G32C C61A | < 1e-05 |  |  | < 1e-05 |  |  |
| G32C G59A | < 1e-05 |  |  | < 1e-05 | < 1e-05 | < 1e-05 |
| G32C U57G | < 1e-05 |  |  | < 1e-05 |  |  |
| A33C C61G | < 1e-05 |  |  |  |  |  |
| A33G C61A | < 1e-05 |  | < 1e-05 | < 1e-05 | < 1e-05 |  |
